# From the supplement of paper PMC10441789
# The list shows a part of the results. Antibody binding of pooled human sera (four to six donors per pool; dilution not stated) to peptides of the Trypanosoma cruzi antigen TSSA on microarrays. Quantile-normalised fluorescence in arbitrary units, mean of duplicate arrays; higher = more binding. No active / inactive call. The uninfected pools are read here as the healthy donors of the same country. The strongest signals lie near the top of the scale (about 60,000).
# What was measured:
# Assay in all cases: antibody binding signal (normalised fluorescence) (arbitrary fluorescence units); higher = stronger serum antibody binding to peptide
# [1] = system: pooled sera of chronic Chagas disease patients, Bolivia
# Description: (§1)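 Microarray of 15-residue peptides over residues 30-55 of Trypanosoma cruzi TSSAII, each with 1 to 10 substitutions at naturally variable positions, probed with one serum pool per country.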
# [2] = system: pooled sera of chronic Chagas disease patients, Brazil
# Description: as §1
# [3] = system: pooled sera of chronic Chagas disease patients, Colombia
# Description: as §1
# [4] = system: pooled sera of chronic Chagas disease patients, Mexico
# Description: as §1
# [5] = system: pooled sera of chronic Chagas disease patients, USA
# Description: as §1
# [6] = system: pooled sera of uninfected people, Argentina
# Description: as §1
# [7] = system: pooled sera of uninfected people, Bolivia
# Description: as §1
# [8] = system: pooled sera of uninfected people, Brazil
# Description: as §1
# [9] = system: pooled sera of uninfected people, Colombia
# Description: as §1
# [10] = system: pooled sera of uninfected people, Mexico
# Description: as §1
# [11] = system: pooled sera of uninfected people, USA
# Description: as §1
Sequence,antibody binding signal [1],antibody binding signal [2],antibody binding signal [3],antibody binding signal [4],antibody binding signal [5],antibody binding signal [6],antibody binding signal [7],antibody binding signal [8],antibody binding signal [9],antibody binding signal [10],antibody binding signal [11]
KAAAGETPSPSGASS,337,1480,278,2850,925,215,300,103,113,187,527
GTDKKPATGGAPSQS,961,3370,5960,1920,1700,291,942,137,150,271,228
TENKPATGGAPSPPG,16600,5980,349,913,3530,354,1020,382,128,211,213
TDKKPATGGAPSPSG,1010,1950,2950,952,1850,299,1270,166,227,144,198
KKTAAGEAPSQSGAS,5670,2510,277,511,4340,247,273,116,277,98.4,298
GTDKKPATGGAPSPP,785,3030,6920,2010,1960,412,1030,141,224,456,200
TENKTATGEAPSPPG,30800,21300,180,159,21000,118,113,219,155,124,107
GTEKKPATGGTPSPP,730,656,2460,1480,1110,280,1310,1410,212,322,1170
KDNKTAAGETPSQSG,297,1080,2010,246,487,480,258,244,267,160,169
KPAAGETPSPPGASS,176,8110,197,254,811,163,277,195,152,151,355
TDKKTATGGAPSQPG,270,1080,3100,827,506,320,188,172,101,292,172
ISTPPSGTENKTAAG,46900,56100,342,9080,31900,4350,752,510,859,455,683
SGTDNKPAAGGTPSQ,1770,44100,4870,462,494,193,921,1090,450,602,246
GKDNKAATGGAPSPS,231,423,1420,1840,2010,241,285,122,157,78,102
TPPSGTEKKPATGGA,4220,39600,857,19500,6770,1660,1820,513,208,284,1120
TISTPPSGTDKKTAT,6550,33000,5810,49800,3570,371,113,244,164,1110,161
TSSTPPSGTDNKTAT,44300,48800,1010,11400,20700,994,706,1740,194,216,288
TISTPPSGKDKKTAT,403,723,224,37900,530,129,273,98,112,91.8,93.4
SGKEKKPAAGGAPSP,1680,4430,6440,8100,5330,199,147,124,121,87.6,241
EKKPATGETPSQSGA,25500,32600,311,230,22900,257,704,381,197,1810,798
SGTENKTATGGAPSQ,12700,21000,655,625,5100,601,362,244,213,470,221
GTENKAAAGGTPSQS,347,584,2960,1090,1590,213,483,1810,317,285,111
GKEKKTATGEAPSQP,4180,28300,4140,5340,15800,194,78.2,125,90.1,104,99.8
SGTDKKTAAGGTPSQ,255,648,18400,996,2180,204,142,871,403,707,177
KENKAATGGAPSQPG,361,17000,247,270,2920,232,96,107,98.2,93.3,179
SGTEKKTATGGAPSQ,226,2920,2700,1860,1810,346,565,121,119,352,150
GTEKKTAAGGTPSQP,338,330,10000,541,1960,259,395,717,281,675,201

Sequence,antibody binding signal [1],antibody binding signal [2],antibody binding signal [3],antibody binding signal [4],antibody binding signal [5],antibody binding signal [6],antibody binding signal [7],antibody binding signal [8],antibody binding signal [9],antibody binding signal [10],antibody binding signal [11]
GTEKKPATGGTPSPS,717,830,2760,1940,1280,290,1270,2120,255,372,1490
GKENKAATGGAPSPS,819,6530,4970,4930,13200,401,152,517,123,132,128
ENKPATGEAPSPSGA,48200,51800,276,498,40200,1020,577,277,114,173,192
STPPSGKENKTAAGE,30100,13300,374,4810,3550,2040,1670,219,1090,274,301
PSGKENKPAAGGAPS,4180,11100,11000,10900,7750,8310,3500,159,279,497,237
GKEKKPATGGTPSQP,825,595,1790,1710,2100,203,124,623,99.3,349,265
KENKPATGETPSQSG,20400,39300,290,831,28300,364,624,348,187,2040,152
SGTENKTAAGEAPSQ,21200,17600,405,385,9320,326,364,192,304,183,174
TPPSGTDNKPAAGGA,42500,49100,5810,16600,22900,3000,862,883,485,1250,578
KDNKPATGETPSPSG,28500,33600,286,198,25300,404,669,314,293,1870,2660
TPPSGKENKTAAGEA,10200,4300,385,2490,2210,1240,1120,464,883,197,261
KKPATGEAPSPSGAS,15900,40500,185,262,30000,953,773,162,188,118,360
GKEKKAAAGEAPSPS,766,1220,5420,7280,9570,179,94.5,112,76.8,92.7,98.5
TENKTATGETPSPSG,1790,1960,237,258,7890,138,220,185,153,301,2550
KEKKPAAGEAPSPSG,225,746,133,147,10900,122,92.9,98.3,76.2,65.9,359
ISTPPSGKEKKAAAG,186,305,724,8780,638,403,299,123,223,91,229
TDNKTAAGGAPSQPG,1090,3600,4300,398,282,277,279,768,196,227,201
TDKKTATGGTPSPSG,635,668,4420,550,1770,250,109,259,823,106,133
KEKKPATGETPSQSG,3600,23600,172,202,18700,229,162,140,126,559,415
GKENKAATGGAPSQS,450,13700,8580,8870,18000,341,117,102,124,94.2,197
DNKPAAGGTPSPSGA,722,626,1710,253,240,238,560,1320,668,427,145
SSTPPSGTDKKPAAG,6540,46100,14200,42600,11200,1290,608,306,301,3360,699
EKKTAAGEAPSPPGA,251,753,626,401,6190,182,1150,142,1210,186,1050
KPAAGEAPSPSGASS,579,12000,163,3180,10400,159,148,130,85.4,83.2,204
PSGTDKKTATGETPS,1360,5450,1540,719,6960,218,549,182,193,329,245
TPPSGTEKKTAAGGA,3970,24100,5050,11100,1980,1260,228,316,121,182,248
